Source: the supplement of paper PMC8948288
The sequences are guide strands of siRNAs; only the seed at positions 2 to 7 varies.

What was measured:
GL261 = assay: cell viability relative to siNT1 (ATP content); H4 human neuroglioma and GL261 mouse glioma; higher = less toxic; conditions: siRNA concentration 25 nM; 96 h; mouse
H4 = assay: as above; conditions: siRNA concentration 10 nM; 96 h; human
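Note: cells reverse transfected with siRNA duplexes via lipid reagent, ATP read by luminescence, triplicate wells, values scaled to mean viability with non-targeting control siNT1.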

| Sequence | cell viability (GL261) | cell viability (H4) |
| --- | --- | --- |
| UCGCAUUACAUGUAAACCA | 44% | 74.2% |
| UCGCCAAACAUGUAAACCA | 50.3% | 101% |
| UCGCCACACAUGUAAACCA | 22.3% | 58% |
| UCGCCAGACAUGUAAACCA | 29.7% | 60.8% |
| UCGCCAUACAUGUAAACCA | 36.2% | 73.1% |
| UCGCCCAACAUGUAAACCA | 45% | 72.8% |
| UCGCCCCACAUGUAAACCA | 23.2% | 64.4% |
| UCGCCCGACAUGUAAACCA | 39.2% | 67.2% |
| UCGCCCUACAUGUAAACCA | 22.1% | 103% |
| UCGCCGAACAUGUAAACCA | 36.1% | 110% |
| UCGCCGCACAUGUAAACCA | 3.83% | 13.7% |
| UCGCCGGACAUGUAAACCA | 30.9% | 53.1% |
| UCGCCGUACAUGUAAACCA | 40.5% | 60.3% |
| UCGCCUAACAUGUAAACCA | 42.7% | 72.7% |
| UCGCCUCACAUGUAAACCA | 29.5% | 24.8% |
| UCGCCUGACAUGUAAACCA | 15.2% | 87.7% |
| UCGCCUUACAUGUAAACCA | 37.9% | 62.1% |
| UCGCGAAACAUGUAAACCA | 39.7% | 79.7% |
| UCGCGACACAUGUAAACCA | 38.9% | 79.5% |
| UCGCGAGACAUGUAAACCA | 36% | 75.2% |
| UCGCGAUACAUGUAAACCA | 35.4% | 120% |
| UCGCGCAACAUGUAAACCA | 34.5% | 80.6% |
| UCGCGCCACAUGUAAACCA | 17.3% | 44% |

| Sequence | cell viability (GL261) | cell viability (H4) |
| --- | --- | --- |
| UCGCGCGACAUGUAAACCA | 37.8% | 102% |
| UCGCGCUACAUGUAAACCA | 23.7% | 83.7% |
| UCGCGGAACAUGUAAACCA | 29.4% | 75.1% |
| UCGCGGCACAUGUAAACCA | 3.47% | 33.5% |
| UCGCGGGACAUGUAAACCA | 9.45% | 46.1% |
| UCGCGGUACAUGUAAACCA | 28.4% | 62.9% |
| UCGCGUAACAUGUAAACCA | 51.3% | 78.4% |
| UCGCGUCACAUGUAAACCA | 48% | 63.4% |
| UCGCGUGACAUGUAAACCA | 47.5% | 69.8% |
| UCGCGUUACAUGUAAACCA | 55.5% | 108% |
| UCGCUAAACAUGUAAACCA | 62.6% | 77.2% |
| UCGCUACACAUGUAAACCA | 55.6% | 77.9% |
| UCGCUAGACAUGUAAACCA | 45% | 77.9% |
| UCGCUAUACAUGUAAACCA | 71.1% | 91% |
| UCGCUCAACAUGUAAACCA | 41.5% | 88.5% |
| UCGCUCCACAUGUAAACCA | 12.2% | 15.9% |
| UCGCUCGACAUGUAAACCA | 40.7% | 83.8% |
| UCGCUCUACAUGUAAACCA | 18.2% | 64.7% |
| UCGCUGAACAUGUAAACCA | 41.5% | 80.1% |
| UCGCUGCACAUGUAAACCA | 11.5% | 73.1% |
| UCGCUGGACAUGUAAACCA | 18.1% | 34.1% |
| UCGCUGUACAUGUAAACCA | 16.1% | 98.6% |
| UCGCUUAACAUGUAAACCA | 34% | 78.1% |

| Sequence | cell viability (GL261) | cell viability (H4) |
| --- | --- | --- |
| UCGCUUCACAUGUAAACCA | 28.2% | 60.3% |
| UCGCUUGACAUGUAAACCA | 23.3% | 92.4% |
| UCGCUUUACAUGUAAACCA | 18.7% | 111% |
| UCGGAAAACAUGUAAACCA | 60.6% | 67.1% |
| UCGGAACACAUGUAAACCA | 29.1% | 82% |
| UCGGAAGACAUGUAAACCA | 34.4% | 93.9% |
| UCGGAAUACAUGUAAACCA | 63.8% | 87% |
| UCGGACAACAUGUAAACCA | 33.6% | 66.9% |
| UCGGACCACAUGUAAACCA | 16.4% | 59.8% |
| UCGGACGACAUGUAAACCA | 25.7% | 53.6% |
| UCGGACUACAUGUAAACCA | 11.4% | 48.9% |
| UCGGAGAACAUGUAAACCA | 63.2% | 55% |
| UCGGAGCACAUGUAAACCA | 25.1% | 11% |
| UCGGAGGACAUGUAAACCA | 21.5% | 22.9% |
| UCGGAGUACAUGUAAACCA | 27% | 50.5% |
| UCGGAUAACAUGUAAACCA | 40.3% | 72.4% |
| UCGGAUCACAUGUAAACCA | 19.4% | 35.4% |
| UCGGAUGACAUGUAAACCA | 89.4% | 75.5% |
| UCGGAUUACAUGUAAACCA | 40.8% | 77.3% |
| UCGGCAAACAUGUAAACCA | 34.7% | 110% |
| UCGGCACACAUGUAAACCA | 19.5% | 38% |
| UCGGCAGACAUGUAAACCA | 18.2% | 47% |
| UCGGCAUACAUGUAAACCA | 14.3% | 78.4% |

| Sequence | cell viability (GL261) | cell viability (H4) |
| --- | --- | --- |
| UCGGCCAACAUGUAAACCA | 37.2% | 68.8% |
| UCGGCCCACAUGUAAACCA | 10.1% | 41.8% |
| UCGGCCGACAUGUAAACCA | 23.4% | 57.1% |
| UCGGCCUACAUGUAAACCA | 23.4% | 37.9% |
| UCGGCGAACAUGUAAACCA | 13.3% | 88.9% |
| UCGGCGCACAUGUAAACCA | 7.5% | 28.6% |
| UCGGCGGACAUGUAAACCA | 8.41% | 6.07% |
| UCGGCGUACAUGUAAACCA | 9.29% | 55.3% |
| UCGGCUAACAUGUAAACCA | 27.8% | 72.7% |
| UCGGCUCACAUGUAAACCA | 5.96% | 22.6% |
| UCGGCUGACAUGUAAACCA | 25.2% | 60.6% |
| UCGGCUUACAUGUAAACCA | 25.9% | 49.2% |
| UCGGGAAACAUGUAAACCA | 44.1% | 74.8% |
| UCGGGACACAUGUAAACCA | 34.6% | 53.9% |
| UCGGGAGACAUGUAAACCA | 43.6% | 79.3% |
| UCGGGAUACAUGUAAACCA | 18.2% | 59.7% |
| UCGGGCAACAUGUAAACCA | 16.7% | 46.3% |
| UCGGGCCACAUGUAAACCA | 4.42% | 4.55% |
| UCGGGCGACAUGUAAACCA | 33.5% | 45.8% |
| UCGGGCUACAUGUAAACCA | 10.5% | 6.64% |
| UCGGGGAACAUGUAAACCA | 34.3% | 23.7% |
